Assay results published in the GPR68 mutational scans of Howard et al. (2025).
The least precise scores are not listed. The source holds two more conditions with little spread; they are left out. In variant names, del marks residues removed and ins residues inserted between the two positions. For some of these results: The concentration of ogerin is not given here.

B1: GPR68, Q15743 (parent)
chain: MGNITADNSSMSCTIDHTIHQTLAPVVYVTVLVVGFPANCLSLYFGYLQIKARNELGVYLCNLTVADLFYICSLPFWLQYVLQHDNWSHGDLSCQVCGILLYENIYISVGFLCCISVDRYLAVAHPFRFHQFRTLKAAVGVSVVIWAKELLTSIYFLMHEEVIEDENQHRVCFEHYPIQAWQRAINYYRFLVGFLFPICLLLASYQGILRAVRRSHGTQKSRKDQIQRLVLSTVVIFLACFLPYHVLLLVRSVWEASCDFAKGVFNAYHFSLLLTSFNCVADPVLYCFVSETTHRDLARLRGACLAFLTCSRTGRAREAYPLGAPEASGKSGAQGEEPELLTKLHPAFQTPNSPGSGGFPTGRLA

Key:
[1] = variants of: B1; assay: cAMP reporter score (Enrich2 score, wild type = 0); higher = more signal; HEK293T, FACS bins
[2] = variants of: B1; assay: surface expression score (Enrich2 score, wild type = 0); higher = more signal; HEK293T, FACS bins

Variant	cAMP reporter score ([1]; pH 5.5)	cAMP reporter score ([1]; pH 6, modulator: ogerin)	cAMP reporter score ([1]; pH 6.5, modulator: ogerin)	surface expression score [2]	cAMP reporter score ([1]; pH 6)
C240I	0.232	0.571	1.64	-2.14	
C240K	-1.71	-0.255	-0.768	-1.82	-1.28
C240L	-0.164	-0.636	0.546	-0.824	
C240M	0.278	0.18	-0.66	-1.02	0.371
C240P	-1.33	-2.11	-1.28	-1.99	-1.44
C240R	-1.72		-0.437		-1.9
C240T	-0.164	-0.643	-1.31	-3.35	-0.825
C240W	0.394	-0.493	-0.453	-2.46	-0.251
C240Y	-0.98	-2.09	-1	-1.03	-0.258
C240_F241del	-1.42	-1.48	-0.685	-2.48	-0.851
C240_F241insGS	-1.91		-2.05	-1.99	-1.35
C240_L242del	-1.43	-1.41	-0.568	-3.35	-0.744
F241_L242del	-1.07	-1.47	-0.793	-2.32	-0.364
L242_P243insG	-2.17	-1.65	-1.46	-2.29	-1.57
L242_P243insGS	-0.548	-1.1	-0.526	-2.12	-1.27
L242del	-0.566	-0.118	-0.152	-1.67	-0.398

Variant	cAMP reporter score ([1]; pH 5.5)	cAMP reporter score ([1]; pH 6, modulator: ogerin)	cAMP reporter score ([1]; pH 6.5, modulator: ogerin)	surface expression score [2]	cAMP reporter score ([1]; pH 6)
P243_Y244insGS	-1.47	-0.768	-1.44	-2.18	-0.679
P243_Y244insGSG	-2.28	-2.09	-1.11	-2.59	-1.1
P243del	-1.63	-1.46	-0.723	-2.17	-1.05
Y244A	-1.34	-1.1	-1.05	-2.75	-1.19
Y244C	-1.07	-1.32	-1.06	-1.13	-1.06
Y244D	-1.12	-1.81	-1.24		-1.05
Y244E	-1.28	-1.68	-0.878	-1.36	-1.63
Y244F	0.761	-0.676	-2.74		-1.86
Y244G	-0.402		-0.663	-2.72	
Y244H	-2.24	-0.937	-1.69	-0.272	-1.62
Y244I	-0.776	-0.984			-0.325
Y244K	-0.986	-0.741	-1.03	-0.815	-0.625
Y244L	-0.256	-0.61	-0.708	-0.564	-0.589
Y244M	-1.13	-1.41	-0.451		-1.08
Y244N	-1.71	-1.41	-1.94	-2.32	-1.24
Y244Q	-1.35	-1.33	-0.636	-2.92	-0.447
